Scores whose standard error is large were omitted. The source holds two more conditions with little spread; they are left out. Read del as a deletion of the residues named and ins as an insertion between two positions. For part of these data: The data file names ogerin without a concentration.
B1: GPR68, Q15743 (parent)
chain: MGNITADNSSMSCTIDHTIHQTLAPVVYVTVLVVGFPANCLSLYFGYLQIKARNELGVYLCNLTVADLFYICSLPFWLQYVLQHDNWSHGDLSCQVCGILLYENIYISVGFLCCISVDRYLAVAHPFRFHQFRTLKAAVGVSVVIWAKELLTSIYFLMHEEVIEDENQHRVCFEHYPIQAWQRAINYYRFLVGFLFPICLLLASYQGILRAVRRSHGTQKSRKDQIQRLVLSTVVIFLACFLPYHVLLLVRSVWEASCDFAKGVFNAYHFSLLLTSFNCVADPVLYCFVSETTHRDLARLRGACLAFLTCSRTGRAREAYPLGAPEASGKSGAQGEEPELLTKLHPAFQTPNSPGSGGFPTGRLA

Key:
[1] = variants of: B1; experiment: cAMP reporter score (Enrich2 score, wild type = 0); higher = more signal; HEK293T, FACS bins
[2] = variants of: B1; experiment: surface expression score (Enrich2 score, wild type = 0); higher = more signal; HEK293T, FACS bins

Variant | cAMP reporter score ([1]; pH 5.5) | cAMP reporter score ([1]; pH 6) | cAMP reporter score ([1]; pH 6, modulator: ogerin) | cAMP reporter score ([1]; pH 6.5, modulator: ogerin) | surface expression score [2]
A306L | -0.313 | -0.531 | -0.172 | -0.052 | -1.07
A306M | 0.315 |  | 0.448 |  | -0.456
A306S | 1.02 | 1.68 | 2.6 | 1.48 | -0.275
A306F | 0.655 | -1.16 | 0.249 | -0.362 | -0.318
A306R | -1.59 | -1.26 | -0.894 | -0.626 | -0.573
A306G | 0.914 | 0.49 | 0.578 | 0.232 | 0.774
A306K | 0.96 | 0.611 | 0.754 | 1.35 | 0.951
A306E | 1.14 | 0.727 | 0.735 | 0.851 | 1.16
A306I | 0.215 | -0.871 | -0.119 | -0.119 | 
A306H | 1.02 |  | 0.723 | 0.375 | 1.28
A306Q | 1.03 | -0.828 | 0.562 | 0.093 | 0.571
A306P | 0.221 | 0.38 | 0.402 | -0.211 | -0.009
A306N | 0.11 | 0.406 | -0.076 | -0.003 | 0.117
A306D | 0.849 |  | 1.39 | 2.57 | 1.15
A306C | -0.028 | -0.144 | -0.368 | -0.833 | -0.413
D296I | -1.01 | -0.322 | 0.336 | -0.427 | -0.661
D296W | 0.858 | -0.547 | 1.02 | -0.045 | -0.042
D296R | 0.313 | 1.62 | 2.19 | 1.46 | 1.81
D296C | 0.887 | -0.146 | 0.185 | 0.079 | 
D296P | -0.628 | -0.82 | -0.734 | -0.765 | 0.211
D296M | 0.168 | -0.141 | -0.038 |  | -1.03
D296H | 0.252 |  | -0.136 | 0.835 | -0.957

Variant | cAMP reporter score ([1]; pH 5.5) | cAMP reporter score ([1]; pH 6) | cAMP reporter score ([1]; pH 6, modulator: ogerin) | cAMP reporter score ([1]; pH 6.5, modulator: ogerin) | surface expression score [2]
D296T | -0.262 | -0.44 | 0.423 | -1.22 | -0.672
D296A | -0.908 | -1.53 | -0.096 | 0.034 | -1.64
D296V | 1.08 | -0.151 | -0.677 | 0.464 | -2.25
D296N | 2.08 |  | 0.972 | 0.536 | 1.92
D296G | 0.734 |  | 0.841 | 0.569 | -0.913
D296Y | 0.054 | -1.12 | 0.492 | -0.104 | 
D296K | -0.425 |  | 0.283 | 3.38 | -1
D296F | -0.535 | -2.02 | -0.165 | -1 | -1.13
D296E | -0.194 |  | -0.333 | 1.04 | -1.08
D296S | -0.013 |  | 0.352 | -0.712 | -0.611
D296Q | 0.904 | 3.23 | 3.02 | 2.72 | -0.101
A298_R299del | -1.99 | -0.788 | -1.04 | -1.18 | -2.55
A303C | 0.472 | 0 | -0.177 | 0.382 | 0.411
A303G | 0.029 | -0.546 | -0.089 | -0.746 | 0.508
A303K | 0.093 | -0.581 | 0.134 | 0.435 | -0.386
A303D | 0.278 | 2.54 | 0.486 | 2.46 | -0.766
A303N | -0.043 | 1.04 | 0.366 | -0.036 | -0.073
A303F | 0.003 | -1.11 | 0.499 | -0.143 | -0.232
A303I | 0.639 | -0.189 | 0.716 | -0.29 | -0.393
A303T | -0.555 | -0.614 | -0.402 | -0.842 | -1.06
A303R | 1.24 | 1.15 | 1.46 | 1.52 | 0.648
A303Q | 0.504 | 0.605 | 1.09 | 0.891 | 1.08

Variant | cAMP reporter score ([1]; pH 5.5) | cAMP reporter score ([1]; pH 6) | cAMP reporter score ([1]; pH 6, modulator: ogerin) | cAMP reporter score ([1]; pH 6.5, modulator: ogerin) | surface expression score [2]
A303H | -0.075 | 0.143 | -0.201 | -0.498 | -0.448
A303W | 1.09 | 2.94 | 0.669 | 0.799 | 1.1
A303S | 0.132 | 0.314 | 0.159 | 0.471 | -0.059
A303L | -0.355 | -0.953 | -0.524 | -0.44 | -0.557
A303E | 0.333 | 1.14 | 0.398 | -0.014 | -0.166
A303V | -0.343 |  | 0.621 | 1.1 | 0.149
A303P | 0.758 | -0.127 | 0.788 | 1 | 1.21
A303Y | 0.26 | 0.238 | 0.584 | 0.138 | 0.662
A303M | -0.381 | 0.225 | 1.2 | 0.724 | 0.752
R301S | -0.71 | 0.302 | -0.451 | 0.092 | 0.108
R301K | 1.04 |  | 1.26 |  | 0.205
R301V | 0.626 | -0.82 | 0.425 | -0.078 | -0.18
R301N | -0.577 | -0.997 | -1.49 |  | -1.26
R301C | -0.828 | 0.279 | -0.636 | -0.413 | -0.526
R301D | -0.348 | -0.428 | -1.12 | -0.656 | -0.935
R301E | 0.121 | -0.038 |  | -0.781 | -1.15
R301T | 0.095 | -0.491 | 0.848 | 0.09 | 
R301Y | 1.21 | 0.717 | 0.804 | 1.17 | 0.37
R301A | -0.791 | -0.469 | -0.721 | -0.583 | -1.09
R301F | 0.839 | 0.193 | 0.024 | 0.893 | 0.446
